Measured values published in the supplement of paper PMC7826260.
The list shows a part of the results. The data describe in vitro nicking of single-stranded DNA by Rep domains (1 h at 37 °C, 3 µM enzyme); the outer parts of the 90-letter strands are left off. The score is log2 (uncut reads / reads without enzyme); the lower, the more was cut; hits are not called. Counts are relative to all reads; where an enzyme cuts many sequences, the uncut ones exceed 0.

How the values were obtained:
Assay in all cases: uncleaved DNA left, log2 of reads against the no-enzyme library (log2 ratio); higher = less cleavage (more negative = more Rep cleavage of the k-mer); sequences stand for … in CTCGTCCG…ACCGGAGA
[1] = test system: T1, Rep nickase domain of Muscovy duck circovirus
T1 sequence (residues 1-111 of Rep, tag left off): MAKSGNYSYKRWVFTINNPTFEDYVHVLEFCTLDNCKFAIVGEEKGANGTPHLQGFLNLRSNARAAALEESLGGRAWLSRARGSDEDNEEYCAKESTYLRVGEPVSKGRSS
Description: (§1)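 A pool of 90-nt single-stranded DNAs with seven random bases just before the constant AC of the nick site (name = the seven bases) was cut by 3 µM recombinant His6-SUMO-tagged Rep nickase domain (300 nM DNA, 50 mM HEPES pH 8.0, 50 mM NaCl, 1 mM MnCl2, 1 h, 37 °C, three replicates). Uncut DNA was amplified and sequenced.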

[2] = test system: T2, Rep nickase domain of banana bunchy top virus
T2 sequence (residues 1-94 of Rep, tag left off): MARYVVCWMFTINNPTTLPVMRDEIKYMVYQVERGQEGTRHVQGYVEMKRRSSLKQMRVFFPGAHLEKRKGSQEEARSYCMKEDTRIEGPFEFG
Description: as §1

[3] = test system: T3, Rep nickase domain of cabbage leaf curl virus
T3 sequence (residues 1-116 of Rep, tag left off): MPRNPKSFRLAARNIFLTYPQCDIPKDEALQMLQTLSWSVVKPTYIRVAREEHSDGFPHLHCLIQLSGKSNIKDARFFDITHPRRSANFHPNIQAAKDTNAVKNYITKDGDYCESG
Description: as §1

[4] = test system: T4, Rep nickase domain of chickpea chlorotic dwarf virus
T4 sequence (residues 1-124 of Rep, tag left off): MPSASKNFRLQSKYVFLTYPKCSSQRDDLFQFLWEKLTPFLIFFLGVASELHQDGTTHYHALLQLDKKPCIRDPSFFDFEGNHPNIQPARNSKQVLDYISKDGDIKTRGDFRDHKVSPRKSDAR
Description: as §1

[5] = test system: T5, Rep nickase domain of faba bean necrotic yellows virus
T5 sequence (residues 1-98 of Rep, tag left off): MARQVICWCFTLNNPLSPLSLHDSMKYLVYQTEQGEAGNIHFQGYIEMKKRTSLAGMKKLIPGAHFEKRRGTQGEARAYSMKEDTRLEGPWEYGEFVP
Description: as §1

[6] = test system: T6, Rep nickase domain of maize striate mosaic virus
T6 sequence (residues 1-117 of Rep, tag left off): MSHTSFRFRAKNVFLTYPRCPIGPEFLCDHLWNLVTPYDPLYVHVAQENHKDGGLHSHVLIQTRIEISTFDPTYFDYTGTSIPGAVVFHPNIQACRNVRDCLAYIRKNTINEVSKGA
Description: as §1

[7] = test system: T7, Rep nickase domain of porcine circovirus 2
T7 sequence (residues 2-116 of Rep, tag left off): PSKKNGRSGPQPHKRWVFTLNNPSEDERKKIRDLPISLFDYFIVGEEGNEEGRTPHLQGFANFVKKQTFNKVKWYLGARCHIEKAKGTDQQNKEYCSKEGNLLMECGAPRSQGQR
Description: as §1

[8] = test system: T8, Rep nickase domain of tomato yellow leaf curl virus
T8 sequence (residues 1-136 of Rep, tag left off): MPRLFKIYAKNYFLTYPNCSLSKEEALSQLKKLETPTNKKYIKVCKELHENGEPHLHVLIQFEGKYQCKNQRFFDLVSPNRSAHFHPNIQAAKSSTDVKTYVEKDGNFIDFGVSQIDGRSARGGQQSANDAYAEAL
Description: as §1

[9] = test system: T9, Rep nickase domain of wheat dwarf virus
T9 sequence (residues 1-137 of Rep, tag left off): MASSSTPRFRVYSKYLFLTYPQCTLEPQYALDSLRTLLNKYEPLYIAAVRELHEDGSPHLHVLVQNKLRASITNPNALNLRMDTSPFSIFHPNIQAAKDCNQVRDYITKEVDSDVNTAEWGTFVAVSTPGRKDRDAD
Description: as §1

Row | Sequence | uncleaved DNA left (log2) [1] | uncleaved DNA left (log2) [2] | uncleaved DNA left (log2) [3] | uncleaved DNA left (log2) [4] | uncleaved DNA left (log2) [5] | uncleaved DNA left (log2) [6] | uncleaved DNA left (log2) [7] | uncleaved DNA left (log2) [8] | uncleaved DNA left (log2) [9]
1 | ACCAGGC | 0.0801 | 0.127 | -0.329 | -0.177 | 0.141 | -0.883 | 0.239 | 0.0483 | -0.0779
2 | ACGGCCG | -0.0584 | -0.0814 | -0.891 | -0.402 | -0.0811 | -0.927 | 0.0331 | -0.167 | -0.116
3 | GTCTGGT | -0.101 | -0.0182 | 0.322 | 0.77 | 0.0626 | 1.63 | -0.176 | 0.0299 | -0.0404
4 | GCCGAGA | 0.0664 | 0.01 | 0.932 | 1.89 | 0.0204 | 2.2 | 0.323 | 0.0812 | 0.141
5 | TGCGCCG | 0.00644 | -0.147 | -0.474 | -0.61 | -0.0843 | -0.761 | -0.0154 | -0.144 | -0.122
6 | TCATACA | 0.0533 | 0.0215 | -0.175 | -2 | 0.0532 | -0.624 | -0.191 | 0.0624 | 0.00137
7 | TAACTGT | -0.0755 | 0.0126 | -1.19 | -2.61 | -0.112 | 0.905 | -0.0668 | 0.0292 | -0.282
8 | TAGTGTA | -0.429 | -0.855 | -0.109 | -1.49 | -0.711 | 0.365 | -2.9 | -0.00292 | -0.0268
9 | AACAAGC | 0.109 | 0.0944 | -0.14 | 0.114 | -0.0466 | -0.746 | 0.148 | -0.025 | -0.0495
10 | GTTATCA | -0.0477 | 0.112 | 0.364 | 1.02 | 0.00295 | 1.88 | 0.043 | 0.0974 | 0.143
11 | CATATAT | 0.019 | -0.556 | 0.0499 | -1.48 | 0.212 | -0.736 | -0.62 | 0.0674 | 0.00364
12 | TGACGTA | 0.0959 | 0.0447 | 0.0888 | 0.129 | 0.0552 | 0.743 | -0.0147 | 0.0481 | 0.0333
13 | CCGCTAT | 0.02 | 0.023 | -0.0366 | -0.693 | -0.0424 | -0.404 | -0.0844 | 0.0565 | 0.202
14 | TACGGTG | 0.133 | -0.0275 | -0.481 | -0.687 | -0.0575 | -0.897 | 0.0843 | 0.0602 | 0.0252
15 | GCGCGTG | 0.118 | 0.111 | -0.104 | 0.185 | 0.19 | 0.249 | 0.198 | -0.0706 | -0.0228
16 | CCGTGCA | -0.243 | -0.13 | -0.524 | -0.777 | -0.196 | -1.03 | -0.554 | 0.0293 | -0.253
17 | ATCAGGA | 0.0846 | 0.0547 | 0.0643 | 0.458 | 0.0613 | -0.239 | 0.206 | -0.0285 | -0.0791
18 | AGTAATC | 0.0301 | 0.00622 | 0.188 | 0.42 | 0.108 | -0.19 | -0.0368 | 0.0469 | 0.0178
19 | TAAGAAA | 0.0748 | 0.0611 | -0.237 | -1.85 | -0.0177 | -0.306 | -0.0678 | -0.00131 | -0.0552
20 | AATTAAG | 0.0383 | -0.0631 | -0.783 | -0.0884 | 0.109 | -0.912 | 0.137 | 0.0383 | 0.0597
21 | ACCGGGA | 0.107 | 0.00564 | 0.692 | 1.01 | 0.0368 | 1.68 | 0.149 | -0.105 | 0.212
22 | TGCACGG | 0.027 | 0.141 | 0.49 | 1.47 | -0.00567 | 2.01 | 0.0612 | -0.0567 | 0.173
23 | ACTCAAC | -0.0297 | 0.0149 | -0.215 | -1.63 | 0.0105 | -0.764 | 0.0353 | -0.139 | -0.0543
24 | CCTGCAG | -0.0972 | -0.227 | -0.946 | -0.77 | -0.115 | -1.29 | -0.145 | -0.131 | -0.215
25 | ATAGCGA | 9.46e-05 | -0.0341 | -0.683 | 0.0592 | 0.0693 | -0.748 | 0.212 | 0.0655 | -0.123
26 | TAGCAGA | -0.0409 | -0.0846 | -0.0675 | -0.597 | 0.00954 | -0.777 | -0.133 | -0.051 | -0.121
27 | TTAGCGG | 0.0211 | -0.014 | 0.398 | 1.04 | -0.0811 | 1.21 | 0.0868 | -0.071 | 0.0246
28 | TGTTGAC | 0.0526 | -0.133 | 0.319 | 0.491 | -0.0407 | 0.338 | 0.0165 | -0.0564 | 0.0501
29 | AGCTAGC | -0.00789 | -0.0176 | -0.0546 | 0.102 | -0.0201 | -0.664 | -0.0319 | 0.0222 | -0.137
30 | AGAGTTA | 0.0887 | 0.0375 | 0.218 | -0.325 | 0.0721 | 0.282 | -0.292 | 0.17 | 0.222
